Experimental findings from ChEMBL document CHEMBL1201862, “PubChem BioAssay data set” (2004) are described below.

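All cell lines were grown in 96-well plates and treated with compound for 48 hours. GI50 marks 50% less growth.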 Activity calls are given as the source filed them. Cut-off read from the data, not from the text of the source: active = GI50 up to about 1.1 µM and inactive = higher.

The subject of this assay is NCI-H322M. The assay can be described thus: DTP human tumour cell line panel, 48 h.
The term GI50 denotes the concentration at which growth is held to half of that of the control. Regarding `Nc1ccc2cc(S(=O)(=O)O)cc(O)c2c1/N=N/c1ccc(NC(=O)Nc2ccc(/N=N/c3c(N)ccc4cc(S(=O)(=O)O)cc(O)c34)c(S(=O)(=O)O)c2)cc1S(=O)(=O)O`, the GI50 is inactive: > 100 µM.

In the case of `Cn1nc(S(N)(=O)=O)s/c1=N/S(=O)(=O)c1ccc(N)cc1`, the GI50 was inactive: > 100 µM.

`O=C1CC(O)(c2ccccc2)C(c2ccccc2)=C1c1ccccc1` (configuration not stated): the GI50 was inactive: 81.8 µM.

`Cc1ccc(S(=O)(=O)Nc2ccccc2C(=O)c2ccc(C)c(C)c2)cc1`: the GI50 is inactive: > 100 µM.

With `Cc1ccc(NC(=O)CC2Sc3ccccc3NC2=O)c(C)c1` (configuration not stated), the GI50 was inactive: 17.9 µM.

In the case of `CC(C)CNC(=O)O`, the GI50 is inactive: > 100 µM.

Take `O=C(O)CCNCC(=O)O`: the GI50 was inactive: > 100 µM.

Turning to `O=C(O)c1ccn(-c2cccc(-n3ccc(C(=O)O)n3)n2)n1`, the GI50 was inactive: > 100 µM.

On to `COc1ccc(S(=O)(=O)c2ccccc2[N+](=O)[O-])cc1`, for which the GI50 is inactive: > 100 µM.

In the case of `O=C(c1ccccc1)c1ccc(N2C(=O)/C(=C/Cc3ccco3)N=C2c2ccccc2)c(N2C(=O)/C(=C/Cc3ccco3)N=C2c2ccccc2)c1`, the GI50 is inactive: > 100 µM.

Regarding `CCOC(=O)NC(=S)NN(C)C1=NCC(C)(C)S1`, the GI50 is inactive: > 100 µM.

`NS(=O)(=O)c1ccc(-c2ccc([As](=O)(O)O)cc2)cc1`: the GI50 is inactive: > 100 µM.

Take `CCCC1C(=O)CCc2c(OC)ccc(OC)c21` (configuration not stated): the GI50 was inactive: > 100 µM.

As for `CC1(c2ccc(Cl)cc2)C=C(c2ccc(Cl)cc2)C(C#N)=C(C(C#N)C#N)N1.CNC` (configuration not stated), the GI50 is inactive: 16 µM.

As to `CO/C(N)=C(C#N)/N=C/c1ccco1`, the GI50 was inactive: > 100 µM.

Consider `O=C(O)c1ccc(C2=Nc3cccc4cccc(c34)N2)cc1`, for which the GI50 was inactive: > 100 µM.

`CC1=NN(C(=O)Cc2ccccc2)C(=O)/C1=C\c1ccc(O)cc1`: the GI50 was inactive: > 100 µM.

As for `O=C1C[C@@H]2[C@@H](CCC23CC3)N1`, the GI50 was inactive: > 100 µM.

For `C[N+](C)(Cc1ccc(NC(=O)CCCC(=O)ON2C(=O)CCC2=O)cc1)c1ccccc1`, the concentration for 50% growth inhibition (GI50) is active: < 0.01 µM.

In the case of `COC(=O)C1(O)c2ccccc2N=C2C1CCN2C` (configuration not stated), the GI50 is inactive: > 100 µM.

For `CC1=CCN(c2ccccn2)OC1c1ccccc1` (configuration not stated), the GI50 is inactive: > 100 µM.

Turning to `Cc1ccc([N+](=O)[O-])cc1NC(=O)/C(CC(=O)c1sc(C(N)=S)nc1C)=N\N`, the GI50 was inactive: > 100 µM.

With `O=c1cc(N2CCOCC2)[nH]c(=O)n1-c1cccc(Cl)c1`, the GI50 was inactive: > 100 µM.

As to `CCN1C(c2ccccc2)=CC(c2ccccc2)(C(Cl)(Cl)Cl)C=C1c1ccccc1`, the GI50 is inactive: 33.2 µM.

With `C[C@H](N)C(=O)Nc1ccc(-c2nc3ccccc3s2)cc1`, the GI50 was inactive: 21.6 µM.

Regarding `N#Cc1c(O)n(-c2ccccc2)c(=O)c2c(N)n[nH]c12`, the GI50 is inactive: > 100 µM.

For `COC(=O)[C@@H]1CSC(=S)N1C(=O)C[C@H]1CC=CC[C@H]1CC(=O)Sc1ccccc1`, the GI50 is inactive: 23.6 µM.

As to `O=c1c2cc(S(=O)(=O)O)ccc2nc(COc2ccc(Oc3ccc(Cl)cc3Cl)cc2)n1C(=S)Nc1ccc(Cl)cc1`, the GI50 was inactive: 33.4 µM.

In the case of `c1cc2n(n1)CCN2`, the GI50 was inactive: 4910 µM.

As for `Cn1c(=O)c(C(=O)NC(=O)NCCCCCOC(=O)CCCCCCCCCCC(=O)OCCCCCNC(=O)NC(=O)c2cn(Cc3ccccc3)c(=O)n(C)c2=O)cn(Cc2ccccc2)c1=O`, the GI50 was inactive: > 100 µM.

As to `CNc1ncnc2c1cnn2Cc1cn(CCCCO)nn1`, the GI50 is inactive: > 100 µM.

As for `Cc1c(Cl)ccc2c1NC(=O)C2(O)C(C(=O)c1ccccc1)c1ccccc1` (configuration not stated), the GI50 was inactive: > 100 µM.

Turning to `CSCCCS/C1=C/CCCCCCCCCC1`, the GI50 was inactive: > 100 µM.

`CC(C)CC(NC=O)C(=O)NC(Cc1ccccc1)NC(=O)CNC(=O)C(C)NC(=O)OC(C)(C)C` (configuration not stated): the GI50 is inactive: > 100 µM.

Consider `N#Cc1ncc(C(Cl)Cl)nc1Cl`, for which the GI50 is inactive: 3.69 µM.

Take `CC(=O)C1=C(C)Cn2c(=O)c3ccccc3c(=O)n2C1`: the GI50 is inactive: > 100 µM.

Take `O=c1c2cc(Br)ccc2nc(-c2ccccc2)n1NCC1(O)OCC(O)C(O)C1O` (configuration not stated): the GI50 is inactive: > 100 µM.

On to `C/C=C(/CCC1NCCC2c3ccccc3NC12)[Si](C)(C)C` (configuration not stated), for which the GI50 is inactive: 11.1 µM.

`CCN(CC)CC(C)(C)C(=O)/C=C/c1cccc(/C=C/C(=O)C(C)(C)CN(CC)CC)c1`: the GI50 was inactive: 1.47 µM.

As for `CC1=NN(c2nc(N)nc(-c3ccccc3S(N)(=O)=O)n2)C(C)(C)C1`, the GI50 is inactive: 18.9 µM.

For `COC(=O)c1c(O)ccc2c1c1c(n2Cc2ccccn2)C(=O)c2ccccc2C1=O`, the GI50 was inactive: 36.6 µM.

As to `COC(=O)C(Cc1nc2ccc(Cl)cc2nc1O)/C(=N/NC(N)=O)C(=O)Nc1ccc(Cl)cc1` (configuration not stated), the GI50 was inactive: > 100 µM.

On to `CC(=O)CC(=O)N(CCN(C(=O)CC(C)=O)c1ccccc1)c1ccccc1`, for which the GI50 was inactive: > 100 µM.

In the case of `[O-]/[N+](=N\c1ccccc1CO)c1ccccc1CO`, the GI50 was inactive: > 100 µM.

For the molecule `CC1=C2C(=O)C3[C@@H](CCC4=CC(=O)CC[C@@]43C)C2CC[C@]12O[C@@H]1C[C@H](C)CN[C@H]1[C@H]2C` (some centres not stated), the GI50 was inactive: > 100 µM.

With `COC(=O)C1=C(C(=O)OC)C(OO)(c2ccccc2)OC1=O` (configuration not stated), the GI50 was inactive: 61.1 µM.

As to `CC(C)NC(=O)OCc1c(CO)c2c(n1C)-c1ccccc1CC2`, the GI50 is inactive: 43.5 µM.

With `O=C1NC(N2CCCC(CO)C2)=N/C1=C\c1cccs1` (configuration not stated), the GI50 is inactive: > 100 µM.

For the molecule `OCCC/N=C1N=C(Cl)/C(=C\c2ccccc2)N\1`, the GI50 was inactive: > 100 µM.

Consider `O=C(CCl)NC(Cc1ccc(F)cc1)C(=O)O` (configuration not stated), for which the GI50 was inactive: > 100 µM.

As for `COc1cc2ccc(/C=C\[N+](=O)[O-])cc2cc1OC`, the GI50 is inactive: 13.1 µM.

Regarding `CC(c1ccccc1)N1CC(C)(c2ccccc2)N(O)C(c2ccccc2)C1C` (configuration not stated), the GI50 is inactive: 24.8 µM.

On to `CC(C)(C)OC(=O)N(CCCCNC(=O)c1ccccc1)CCCNC(=O)c1ccccc1`, for which the GI50 was inactive: > 100 µM.

Take `[N-]=[N+]=CC(=O)OCC1NC(=O)C(COC(=O)C=[N+]=[N-])NC1=O` (configuration not stated): the GI50 is inactive: > 100 µM.

In the case of `COc1ccc(-c2c3c(n(C4OC(COC(C)=O)C(OC(C)=O)C(OC(C)=O)C4OC(C)=O)c(=S)c2C#N)CC(C)(C)CC3=O)cc1` (configuration not stated), the GI50 was inactive: > 100 µM.

`C=CCn1c(=O)c(C(=O)NC(=O)OCC)cn(C2CCCCC2)c1=O`: the GI50 was inactive: > 100 µM.

For the molecule `O=C1c2cccc3cccc(c23)C(=O)N1CCCNOCCONCCCN1C(=O)c2cccc3cccc(c23)C1=O`, the GI50 was inactive: 33.5 µM.

For the molecule `CCOC(=O)Cn1c(=O)n(C)c(=O)c2[nH]cnc21`, the GI50 is inactive: > 100 µM.

For the molecule `CN(C)NC1=C([N+](=O)[O-])C=NN(c2ccccc2)C1`, the GI50 is inactive: 4.04 µM.

Consider `COC(=O)c1csc(-c2csc(CCNC(=O)OC(C)(C)C)n2)n1`, for which the GI50 was inactive: > 100 µM.

Consider `O=C1/C(=C/c2ccccc2[N+](=O)[O-])N=C(c2ccccc2)N1c1nc2ccccc2s1`, for which the GI50 is inactive: 37.4 µM.

As for `CNC(=O)c1ccccc1[S+]1c2cccc3cccc(c23)C(=O)N1C` (configuration not stated), the GI50 is inactive: > 100 µM.

On to `Cc1ccc(/N=N/c2cc(=O)[nH]c(=O)[nH]2)cc1C`, for which the GI50 was inactive: 17 µM.

Consider `CC(=O)CC1(OC(=O)C2C(C=C(C)C)C2(C)C)C(=O)Nc2ccccc21` (configuration not stated), for which the GI50 is inactive: > 100 µM.

Consider `COc1cc(C(=O)/C=C/c2ccc(OCCSCCCCCCCCCCSCCOc3ccc(/C=C/C(=O)c4cc(OC)c(OC)c(OC)c4)cc3)cc2)cc(OC)c1OC`, for which the GI50 is inactive: > 100 µM.

Consider `CCOc1cc2c(=O)oc3c(OC)ccc4ccc(c1OC)c2c43`, for which the GI50 is inactive: 38.5 µM.

As to `CSc1ncc2c(n1)-c1ccccc1OC2N1CCOCC1` (configuration not stated), the GI50 was inactive: > 100 µM.

In the case of `CC(C)(C)OC1=C(OC(C)(C)C)C(O)(c2ccc(Cl)cc2)C1=O` (configuration not stated), the GI50 is inactive: > 100 µM.

As to `Cc1ccc(C)c(NC(=O)CC/C(=N\NC(=O)C(=O)NN)C(C)C(=O)c2ccc(O)cc2)c1` (configuration not stated), the GI50 was inactive: > 100 µM.

For `O=C1Nc2ccccc2C(=O)/C1=C/NC(=S)NCc1ccccc1`, the GI50 is inactive: > 100 µM.

Consider `O=C(O)c1cccc(/C=C/c2ccccc2)c1`, for which the GI50 was inactive: > 100 µM.

For `CC12CCC(C(=O)OC1=O)C(C)(C)O2` (configuration not stated), the GI50 was inactive: > 100 µM.

In the case of `O=C([O-])C(O)C(O)C(O)C(O)C(=O)O.[K+]` (configuration not stated), the GI50 is inactive: > 100 µM.

With `C=C[C@]1(C)CCC2=C(CCC3C2(C)CCC[C@]3(C)CO)C1` (some centres not stated), the GI50 was inactive: > 100 µM.

On to `Cc1[nH]n(-c2nc3c(c(=O)[nH]2)CCCC3)c(=O)c1CCO`, for which the GI50 was inactive: > 100 µM.

On to `C1=C(CC2=C[P+](c3ccccc3)(c3ccccc3)C=C(c3ccccc3)O2)OC(c2ccccc2)=C[P+]1(c1ccccc1)c1ccccc1`, for which the concentration for 50% growth inhibition (GI50) is active: 0.538 µM.

For `CCCCCCCCCCCCc1ccc(S(=O)(=O)O)cc1`, the GI50 was inactive: > 100 µM.

For the molecule `CC(CC[C@@H](C)C1CCC2[C@@H]3CC(O)C4CC(O)[C@@H](O)C[C@]4(C)C3CC[C@@]21C)C(C)(C)C` (some centres not stated), the GI50 was inactive: > 100 µM.

Consider `COc1cc2c(cc1OC(=O)c1cc3ccccc3[nH]1)N=C[C@@H]1CCCN1C2=O`, for which the GI50 was inactive: 1.64 µM.

Take `O=C1c2ccccc2-c2cc([N+](=O)[O-])c([N+](=O)[O-])cc21`: the GI50 is inactive: 9.77 µM.

For the molecule `CSc1ccccc1P(CCP(c1ccccc1SC)c1ccccc1SC)c1ccccc1SC`, the GI50 was inactive: 12.3 µM.

Consider `O=S(=O)(N/C(=N\O)Nc1ccc(Cl)cc1)c1cc(C(F)(F)F)cc(C(F)(F)F)c1`, for which the GI50 is inactive: 18.9 µM.
